Measurements taken from the supplement of paper PMC9446081.
In all, about 39,000 compounds went through this assay and about 220 (0.56%) showed activity. The list shows a part of the results.

system: Escherichia coli K-12 BW25113; test: relative growth (OD600 normalised to plate interquartile mean) (fraction); higher = less growth inhibition, active = 0.2 or less; conditions: 50 µM; LB; incubation time: overnight (16-24 h)
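Further: static incubation at 37 °C against the wild-type strain, values averaged over two biological replicates.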

Row | Compound | relative growth
1 | CCS(=O)(=O)NCC[C@H]1CC[C@H](NC(=O)Cc2ccccn2)[C@@H](CO)O1 | inactive: 1.01
2 | CN(C)C(=O)C[C@H]1CC[C@@H](NC(=O)C2CC2)[C@H](CO)O1 | inactive: 0.983
3 | COc1ccc(NC(=O)N(C)C[C@H]2OCCCC[C@@H](C)Oc3ccc(NC(=O)NC(C)C)cc3C(=O)N([C@H](C)CO)C[C@H]2C)cc1 | inactive: 0.976
4 | Cc1noc(C)c1NC(=O)Nc1ccc2c(c1)C(=O)N([C@H](C)CO)C[C@@H](C)[C@@H](CN(C)Cc1ccc(C(=O)O)cc1)OCCCC[C@@H](C)O2 | inactive: 0.994
5 | C[C@H]1CN([C@@H](C)CO)C(=O)c2cccc(NS(=O)(=O)c3ccc(Cl)cc3)c2O[C@@H]1CN(C)Cc1ccc(Cl)c(Cl)c1 | inactive: 0.981
6 | O=C(Nc1ccc(C(F)(F)F)cc1)Nc1ccc2c(c1)[C@H]1C[C@@H](CC(=O)N3CCc4ccccc4C3)O[C@@H](CO)[C@H]1O2 | inactive: 1.03
7 | Cc1noc(C)c1S(=O)(=O)Nc1ccc2c(c1)C(=O)N([C@@H](C)CO)C[C@@H](C)[C@@H](CN(C)C(=O)NC(C)C)O2 | inactive: 1.01
8 | C[C@H]1CCCCO[C@@H](CN(C)C(=O)c2ccccc2)[C@@H](C)CN([C@@H](C)CO)C(=O)c2cc(NC(=O)c3ccccc3)ccc2O1 | inactive: 1.01
9 | C[C@H]1CCCCO[C@@H](CN(C)S(=O)(=O)c2ccccc2)[C@@H](C)CN([C@@H](C)CO)C(=O)c2cc(NC(=O)NC3CCCCC3)ccc2O1 | inactive: 1.01
10 | C[C@@H]1CN([C@H](C)CO)C(=O)c2cc(NS(C)(=O)=O)ccc2O[C@@H]1CN(C)C(=O)Nc1ccc2c(c1)OCO2 | inactive: 0.984
11 | C[C@@H]1CCCCO[C@H](CN(C)C(=O)C2CCCCC2)[C@@H](C)CN([C@H](C)CO)C(=O)c2cc(NC(=O)C3CCCCC3)ccc2O1 | inactive: 1
12 | O=C(C[C@H]1CC[C@@H]2[C@H](COC[C@@H](O)CN2C(=O)c2cccnc2)O1)NCc1ccc(-c2ccccc2)cc1 | inactive: 1.03
13 | CNC[C@@H]1Oc2ccc(NC(=O)CCN3CCOCC3)cc2CC(=O)N([C@H](C)CO)C[C@@H]1C | inactive: 0.985
14 | C[C@@H]1CCCCO[C@H](CN(C)Cc2ccccc2)[C@@H](C)CN([C@H](C)CO)C(=O)c2cc(NS(=O)(=O)c3ccccc3)ccc2O1 | inactive: 1.01
15 | COc1ccc(NC(=O)N(C)C[C@@H]2Oc3ccc(NC(=O)CCCCCC(=O)Nc4ccccc4N)cc3CC(=O)N([C@@H](C)CO)C[C@@H]2C)cc1 | inactive: 1.02
16 | N[C@H]1CCS(=O)(=O)C1 | inactive: 0.986
17 | CC1(C)SC2C(NC(=O)COc3ccccc3)C(=O)N2C1C(=O)[O-].[K+] (centres undefined) | inactive: 0.598
18 | CC(=O)NCCOCCOCC(=O)N[C@@H]1C/C=C/CCC(=O)N[C@H](c2ccccc2)COC1=O | inactive: 1
19 | COc1ccc(NC(=O)N(C)C[C@@H]2Oc3c(NC(=O)Nc4cccc5ccccc45)cccc3C(=O)N([C@H](C)CO)C[C@@H]2C)cc1 | inactive: 1.01
20 | CC(=O)Nn1cc(C(=O)O)c2ccccc2c1=O | inactive: 0.968

Row | Compound | relative growth
21 | C[C@@H]1CCCCO[C@H](CN(C)Cc2ccc(C(=O)O)cc2)[C@H](C)CN([C@@H](C)CO)C(=O)c2cc(NC(=O)Nc3ccc4c(c3)OCO4)ccc2O1 | inactive: 0.972
22 | COC(=O)C(CCCN1C(=O)c2ccccc2C1=O)(NC(C)=O)c1nn[nH]n1 (centres undefined) | inactive: 0.922
23 | O=C(C[C@H]1C=C[C@@H](NC(=O)Nc2ccc3c(c2)OCO3)[C@H](CO)O1)NCCCN1CCOCC1 | inactive: 0.957
24 | O=C(C[C@@H]1CC[C@@H]2[C@H](COC[C@@H](O)CN2C(=O)Nc2ccc(C(F)(F)F)cc2)O1)NCCc1ccncc1 | inactive: 0.93
25 | C[C@H](CO)N1C[C@H](C)[C@H](CN(C)Cc2ccc(C(F)(F)F)cc2)Oc2ccc(NC(=O)Nc3ccc(C(F)(F)F)cc3)cc2CC1=O | inactive: 1.02
26 | C[C@@H]1CCCCO[C@@H](CN(C)Cc2ccc(C(=O)O)cc2)[C@@H](C)CN([C@@H](C)CO)C(=O)c2cc(NC(=O)NC3CCCCC3)ccc2O1 | inactive: 1.03
27 | O=C1CN(S(=O)(=O)Cc2ccccc2)C[C@H]2[C@@H](c3ccc(C#Cc4cccc(F)c4)cc3)[C@H](CO)N12 | inactive: 0.983
28 | COc1cccc(NC(=O)N2C[C@H](O)COC[C@H]3O[C@@H](CC(=O)NCCCN4CCOCC4)CC[C@@H]32)c1 | inactive: 0.996
29 | CCNC(=O)C[C@H]1C=C[C@H](NC(=O)C2CC2)[C@@H](CO)O1 | inactive: 1.01
30 | C[C@H]1CN([C@@H](C)CO)C(=O)c2cccc(NC(=O)c3cnccn3)c2O[C@H]1CN(C)S(=O)(=O)c1cn(C)cn1 | inactive: 0.995
31 | C=CCOC(=O)[C@@H]1[C@H]2C(=O)O[C@H](c3ccccc3)[C@H](c3ccccc3)N2[C@H](c2ccc(OCCOC(=O)[C@@H]3C[C@@H]4C(=O)NCC(=O)N4[C@@H]3c3cccc(OCCO)c3)cc2)[C@@]12C(=O)Nc1ccccc12 | inactive: 1.05
32 | C[C@@H]1CCCCO[C@@H](CN(C)C(=O)Nc2cccc3ccccc23)[C@@H](C)CN([C@H](C)CO)C(=O)c2cc(N(C)C)ccc2O1 | inactive: 1.01
33 | CC(C)N1CC=C[C@@]23O[C@@H]4C=CCCOC(=O)[C@@H]4[C@H]2C(=O)N(CCO)[C@@H]3C1=O | inactive: 0.992
34 | Cc1ccc(S[C@]2(C(=O)O)CC(=O)N(Cc3ccccc3C(F)(F)F)[C@@H]2c2ccc(CO)cc2)cc1 | inactive: 0.957
35 | C[C@H](CO)N1C[C@H](C)[C@@H](CN(C)Cc2ccc(Oc3ccccc3)cc2)Oc2c(NC(=O)NC3CCCCC3)cccc2C1=O | inactive: 0.991
36 | O=C1c2c(O)cc(CO)cc2C(OC2OC(CO)C(O)C(O)C2O)c2cccc(OC3OC(CO)C(O)C(O)C3O)c21 (centres undefined) [CASANTHRANOL [cascaroside A shown]] | inactive: 1.06
37 | Cc1ccc(S(=O)(=O)N(C)C[C@@H]2Oc3c(NC(=O)c4ccncc4)cccc3C(=O)N([C@H](C)CO)C[C@@H]2C)cc1 | inactive: 0.985
38 | CC(C)CC#Cc1ccc2c(c1)O[C@@H](CN(C)Cc1cncnc1)[C@@H](C)CN([C@@H](C)CO)S2(=O)=O | inactive: 0.951
39 | COC(=O)c1c[nH]c(=S)n1C | inactive: 1.04
40 | C[C@H]1CN([C@@H](C)CO)S(=O)(=O)c2ccc(C#Cc3ccncc3)cc2O[C@@H]1CN(C)C(=O)Nc1ccc2c(c1)OCO2 | inactive: 0.998

Row | Compound | relative growth
41 | Cc1noc(C)c1NC(=O)N(C)C[C@H]1OCCCC[C@@H](C)Oc2ccc(NS(=O)(=O)c3ccc(Cl)cc3)cc2C(=O)N([C@H](C)CO)C[C@H]1C | inactive: 0.962
42 | C[C@@H]1CN([C@H](C)CO)C(=O)c2cc(NS(=O)(=O)c3cn(C)cn3)ccc2O[C@H]1CN(C)S(C)(=O)=O | inactive: 1.01
43 | C[C@@H]1CCCCO[C@H](CN(C)CC2CC2)[C@@H](C)CN([C@H](C)CO)C(=O)c2cc(NC(=O)CCC(F)(F)F)ccc2O1 | inactive: 1.02
44 | C=C[C@](C)(O)CCC[C@H](C)CCC[C@H](C)CCCC(C)C | inactive: 0.998
45 | Cc1ccc(S(=O)(=O)Nc2ccc3c(c2)CC(=O)N([C@@H](C)CO)C[C@@H](C)[C@@H](CN(C)Cc2ccc(-c4ccccc4)cc2)O3)cc1 | inactive: 1.01
46 | CC1(C)C=Cc2c(c3c(c4c(=O)c(-c5ccc(O)cc5)coc24)OC(C)(C)CC3)O1 | inactive: 1
47 | Cc1ccc(S(=O)(=O)Nc2ccc3c(c2)CC(=O)N([C@@H](C)CO)C[C@@H](C)[C@@H](CN(C)S(=O)(=O)c2cccs2)O3)cc1 | inactive: 0.995
48 | COc1ccc(S(=O)(=O)Nc2ccc3c(c2)C(=O)N([C@H](C)CO)C[C@H](C)[C@@H](CN(C)C(=O)Nc2ccc(C(F)(F)F)cc2)OCCCC[C@H](C)O3)cc1 | inactive: 0.995
49 | C[C@@H]1CN([C@H](C)CO)C(=O)CCCn2nncc2CO[C@H]1CN(C)S(=O)(=O)c1ccc(-c2ccccc2)cc1 | inactive: 0.979
50 | COc1ccc(S(=O)(=O)Nc2ccc3c(c2)CC(=O)N([C@H](C)CO)C[C@@H](C)[C@@H](CN(C)Cc2ccc(-c4ccccc4)cc2)O3)cc1 | inactive: 1.02
51 | Cc1cc(C)n(CCC(=O)O)n1 | inactive: 1
52 | CC(C)NC(=O)N(C)C[C@@H]1Oc2ccc(NC(=O)NC3CCCCC3)cc2C(=O)N([C@@H](C)CO)C[C@H]1C | inactive: 1.01
53 | CCOC(=O)[C@H]1C/C=C/C[C@H](C(=O)OCC)C(=O)O[C@H]2[C@@H](OC)O[C@H](COC(=O)NCCCCCC(=O)NO)[C@@H](OC(=O)Nc3ccccc3)[C@@H]2OC1=O | inactive: 0.981
54 | C[C@H]1CCCCO[C@@H](CN(C)Cc2ccccc2)[C@@H](C)CN([C@@H](C)CO)C(=O)c2cc(NS(=O)(=O)c3ccccc3)ccc2O1 | inactive: 0.977
55 | O=C(O)CCc1nc(-c2ccccc2)c(-c2ccccc2)o1 | inactive: 1.16
56 | C[C@H](CO)N1C[C@H](C)[C@H](CN(C)C(=O)Nc2ccccc2)Oc2cc(C#CC3(O)CCCC3)ccc2S1(=O)=O | inactive: 1.04
57 | C[C@H](CO)N1C[C@H](C)[C@H](CN(C)S(=O)(=O)c2ccc(Cl)cc2)Oc2c(NC(=O)Nc3ccc(C(F)(F)F)cc3)cccc2C1=O | inactive: 1.01
58 | C[C@@H]1CN([C@@H](C)CO)C(=O)CCCn2cc(nn2)CO[C@@H]1CN(C)S(=O)(=O)c1ccc2c(c1)OCCCO2 | inactive: 1.05
59 | C[C@H](CO)N1C[C@H](C)[C@@H](CN(C)Cc2ccc3c(c2)OCO3)Oc2ccc(NS(C)(=O)=O)cc2C1=O | inactive: 1.01
